{
  "source": "paper PMC12820563",
  "note": "Some of the results follow. The list includes weakly bound sequences.",
  "data": [
    {"target": "T1, MBP-FoxP3dN (UniProt Q99JB6)", "T1 sequence": "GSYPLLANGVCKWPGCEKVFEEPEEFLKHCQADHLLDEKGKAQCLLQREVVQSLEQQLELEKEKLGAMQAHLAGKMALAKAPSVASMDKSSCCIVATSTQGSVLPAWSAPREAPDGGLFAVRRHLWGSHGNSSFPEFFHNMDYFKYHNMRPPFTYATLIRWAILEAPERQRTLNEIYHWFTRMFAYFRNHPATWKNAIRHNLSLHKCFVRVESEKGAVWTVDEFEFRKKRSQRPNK", "assay": "PD-seq (MBP pull-down with sequencing)", "conditions": "20 mM Tris-HCl pH 7.5, 100 mM NaCl, 1.5 mM MgCl2, 0.4 uM protein, 0.1 uM dsDNA library, 30 min, room temperature, amylose pull-down; high values mean tight binding; double strand, one strand shown", "values": [
      {"sequence": "GATGATTGTTCTCCCAGCTGATGAATTTTTGGACTCGAGTAAACAAATTTTCCTAATCTTTCTGTTCAAGCGCCATCTAC", "binding signal (RPM ratio (pull-down/input))": 0.234},
      {"sequence": "GATGATTGTTCTCCCAGCTGATGAATTCGGGGACTCGAGTAAACAAATTTTCCTAATCTTTCTGTTCAAGCGCCATCTAC", "binding signal (RPM ratio (pull-down/input))": 0.369},
      {"sequence": "GATGATTGTTCTCCCAGCTGATGAATTTAACTAGTCGAGTAAACAAATTTTCCTAATCTTTCTGTTCAAGCGCCATCTAC", "binding signal (RPM ratio (pull-down/input))": 0.336},
      {"sequence": "GATGATTGTTCTCCCAGCTGATGAATTTAGATAATCGAGTAAACAAATTTTCCTAATCTTTCTGTTCAAGCGCCATCTAC", "binding signal (RPM ratio (pull-down/input))": 0.583},
      {"sequence": "GATGATTGTTCTCCCAGCTGATGAATTCTACTGCTCGAGTAAACAAATTTTCCTAATCTTTCTGTTCAAGCGCCATCTAC", "binding signal (RPM ratio (pull-down/input))": 0.346},
      {"sequence": "GATGATTGTTCTCCCAGCTGATGAATTGCCGCGGTCGAGTAAACAAATTTTCCTAATCTTTCTGTTCAAGCGCCATCTAC", "binding signal (RPM ratio (pull-down/input))": 0.522},
      {"sequence": "GATGATTGTTCTCCCAGCTGATGAATTTTCACTTTCGAGTAAACAAATTTTCCTAATCTTTCTGTTCAAGCGCCATCTAC", "binding signal (RPM ratio (pull-down/input))": 0.294},
      {"sequence": "GATGATTGTTCTCCCAGCTGATGAATTCTCACTGTCGAGTAAACAAATTTTCCTAATCTTTCTGTTCAAGCGCCATCTAC", "binding signal (RPM ratio (pull-down/input))": 0.285},
      {"sequence": "GATGATTGTTCTCCCAGCTGATGAATTGCGTAGATCGAGTAAACAAATTTTCCTAATCTTTCTGTTCAAGCGCCATCTAC", "binding signal (RPM ratio (pull-down/input))": 0.82},
      {"sequence": "GATGATTGTTCTCCCAGCTGATGAATTTTGTTCCTCGAGTAAACAAATTTTCCTAATCTTTCTGTTCAAGCGCCATCTAC", "binding signal (RPM ratio (pull-down/input))": 1.64},
      {"sequence": "GATGATTGTTCTCCCAGCTGATGAATTGTCGGTGTCGAGTAAACAAATTTTCCTAATCTTTCTGTTCAAGCGCCATCTAC", "binding signal (RPM ratio (pull-down/input))": 0.555},
      {"sequence": "GATGATTGTTCTCCCAGCTGATGAATTCCCATGTTCGAGTAAACAAATTTTCCTAATCTTTCTGTTCAAGCGCCATCTAC", "binding signal (RPM ratio (pull-down/input))": 0.414},
      {"sequence": "GATGATTGTTCTCCCAGCTGATGAATTTCCTACCTCGAGTAAACAAATTTTCCTAATCTTTCTGTTCAAGCGCCATCTAC", "binding signal (RPM ratio (pull-down/input))": 0.264},
      {"sequence": "GATGATTGTTCTCCCAGCTGATGAATTTATCAGGTCGAGTAAACAAATTTTCCTAATCTTTCTGTTCAAGCGCCATCTAC", "binding signal (RPM ratio (pull-down/input))": 0.603},
      {"sequence": "GATGATTGTTCTCCCAGCTGATGAATTACAGTAGTCGAGTAAACAAATTTTCCTAATCTTTCTGTTCAAGCGCCATCTAC", "binding signal (RPM ratio (pull-down/input))": 0.54},
      {"sequence": "GATGATTGTTCTCCCAGCTGATGAATTCGCCGCGTCGAGTAAACAAATTTTCCTAATCTTTCTGTTCAAGCGCCATCTAC", "binding signal (RPM ratio (pull-down/input))": 0.542},
      {"sequence": "GATGATTGTTCTCCCAGCTGATGAATTTAGCCTGTCGAGTAAACAAATTTTCCTAATCTTTCTGTTCAAGCGCCATCTAC", "binding signal (RPM ratio (pull-down/input))": 4.82},
      {"sequence": "GATGATTGTTCTCCCAGCTGATGAATTACCTCAATCGAGTAAACAAATTTTCCTAATCTTTCTGTTCAAGCGCCATCTAC", "binding signal (RPM ratio (pull-down/input))": 0.271},
      {"sequence": "GATGATTGTTCTCCCAGCTGATGAATTCGAAGTGTCGAGTAAACAAATTTTCCTAATCTTTCTGTTCAAGCGCCATCTAC", "binding signal (RPM ratio (pull-down/input))": 0.452},
      {"sequence": "GATGATTGTTCTCCCAGCTGATGAATTTCTAATTTCGAGTAAACAAATTTTCCTAATCTTTCTGTTCAAGCGCCATCTAC", "binding signal (RPM ratio (pull-down/input))": 0.301},
      {"sequence": "GATGATTGTTCTCCCAGCTGATGAATTGTTCAGATCGAGTAAACAAATTTTCCTAATCTTTCTGTTCAAGCGCCATCTAC", "binding signal (RPM ratio (pull-down/input))": 0.284},
      {"sequence": "GATGATTGTTCTCCCAGCTGATGAATTTCAACATTCGAGTAAACAAATTTTCCTAATCTTTCTGTTCAAGCGCCATCTAC", "binding signal (RPM ratio (pull-down/input))": 0.561},
      {"sequence": "GATGATTGTTCTCCCAGCTGATGAATTCATTGCTTCGAGTAAACAAATTTTCCTAATCTTTCTGTTCAAGCGCCATCTAC", "binding signal (RPM ratio (pull-down/input))": 0.974},
      {"sequence": "GATGATTGTTCTCCCAGCTGATGAATTCTTTTTATCGAGTAAACAAATTTTCCTAATCTTTCTGTTCAAGCGCCATCTAC", "binding signal (RPM ratio (pull-down/input))": 0.332},
      {"sequence": "GATGATTGTTCTCCCAGCTGATGAATTTTCTTCCTCGAGTAAACAAATTTTCCTAATCTTTCTGTTCAAGCGCCATCTAC", "binding signal (RPM ratio (pull-down/input))": 0.205},
      {"sequence": "GATGATTGTTCTCCCAGCTGATGAATTCATCGCTTCGAGTAAACAAATTTTCCTAATCTTTCTGTTCAAGCGCCATCTAC", "binding signal (RPM ratio (pull-down/input))": 0.549},
      {"sequence": "GATGATTGTTCTCCCAGCTGATGAATTATCTCCGTCGAGTAAACAAATTTTCCTAATCTTTCTGTTCAAGCGCCATCTAC", "binding signal (RPM ratio (pull-down/input))": 0.202},
      {"sequence": "GATGATTGTTCTCCCAGCTGATGAATTGACCCAGTCGAGTAAACAAATTTTCCTAATCTTTCTGTTCAAGCGCCATCTAC", "binding signal (RPM ratio (pull-down/input))": 0.221},
      {"sequence": "GATGATTGTTCTCCCAGCTGATGAATTCCGGATTTCGAGTAAACAAATTTTCCTAATCTTTCTGTTCAAGCGCCATCTAC", "binding signal (RPM ratio (pull-down/input))": 0.249},
      {"sequence": "GATGATTGTTCTCCCAGCTGATGAATTGTCGGGATCGAGTAAACAAATTTTCCTAATCTTTCTGTTCAAGCGCCATCTAC", "binding signal (RPM ratio (pull-down/input))": 0.302},
      {"sequence": "GATGATTGTTCTCCCAGCTGATGAATTATAAGAATCGAGTAAACAAATTTTCCTAATCTTTCTGTTCAAGCGCCATCTAC", "binding signal (RPM ratio (pull-down/input))": 0.252},
      {"sequence": "GATGATTGTTCTCCCAGCTGATGAATTGGCGGTATCGAGTAAACAAATTTTCCTAATCTTTCTGTTCAAGCGCCATCTAC", "binding signal (RPM ratio (pull-down/input))": 0.566},
      {"sequence": "GATGATTGTTCTCCCAGCTGATGAATTCCATCGCTCGAGTAAACAAATTTTCCTAATCTTTCTGTTCAAGCGCCATCTAC", "binding signal (RPM ratio (pull-down/input))": 0.389},
      {"sequence": "GATGATTGTTCTCCCAGCTGATGAATTTCGGAAATCGAGTAAACAAATTTTCCTAATCTTTCTGTTCAAGCGCCATCTAC", "binding signal (RPM ratio (pull-down/input))": 0.275},
      {"sequence": "GATGATTGTTCTCCCAGCTGATGAATTTTTGGATTCGAGTAAACAAATTTTCCTAATCTTTCTGTTCAAGCGCCATCTAC", "binding signal (RPM ratio (pull-down/input))": 0.259},
      {"sequence": "GATGATTGTTCTCCCAGCTGATGAATTTCACGTTTCGAGTAAACAAATTTTCCTAATCTTTCTGTTCAAGCGCCATCTAC", "binding signal (RPM ratio (pull-down/input))": 0.433},
      {"sequence": "GATGATTGTTCTCCCAGCTGATGAATTTTCGGTGTCGAGTAAACAAATTTTCCTAATCTTTCTGTTCAAGCGCCATCTAC", "binding signal (RPM ratio (pull-down/input))": 0.401},
      {"sequence": "GATGATTGTTCTCCCAGCTGATGAATTATTAGGTTCGAGTAAACAAATTTTCCTAATCTTTCTGTTCAAGCGCCATCTAC", "binding signal (RPM ratio (pull-down/input))": 0.47},
      {"sequence": "GATGATTGTTCTCCCAGCTGATGAATTGTAACGCTCGAGTAAACAAATTTTCCTAATCTTTCTGTTCAAGCGCCATCTAC", "binding signal (RPM ratio (pull-down/input))": 0.598},
      {"sequence": "GATGATTGTTCTCCCAGCTGATGAATTCTCGGATTCGAGTAAACAAATTTTCCTAATCTTTCTGTTCAAGCGCCATCTAC", "binding signal (RPM ratio (pull-down/input))": 0.254}
    ]}
  ]
}
